The text below walks through data of patent US8741893B2, “6,7-dihydro-[1,3,4]thiadiazolo-[3,2-a][1,3]diazepin derivatives and pharmaceutical compositions containing the same as hypnotic or anesthetic agent and method for their preparation” (priority 2011, dated 2014).

In data set [1] the test system is mice. The data set can be described thus: Lethal dose (LD50) and Therapeutic Index. It is filed as in vivo, Swiss albino mice. The following applies: for Therapeutic Index: calculated from LD50 and minimal effective hypnotic dose; for LD50: male mice, i.p., observed for 72 hours.
Data set [2] relates to mice. The data set can be described thus: Hypnotic activity, standard righting reflex method. It is filed as in vivo, Swiss albino mice. The following applies: mice, i.p.; for Duration of sleep / Onset of sleep: at minimal effective dose, N = 6; for Minimal Effective Dose: hypnosis (loss of righting reflex).
For data set [3] the following is noted: cited from earlier work.
Data set [4] relates to mice. The data set can be described thus: Potentiating effect to the non hypnotic dose of thiopental sodium. As to conditions: thiopental Na alone, 0.2 mmole/kg i.p.
[5] abbreviates: single intravenous anesthetic dose.

Take `O=C1CCCN2N=C(c3ccccc3)SC2=N1` [GS-62, (E) 2-Phenyl-6,7-dihydro-[1,3,4]thiadiazolo[3,2-α][1,3]diazepin-8(5H)-one]: in the data set on mice [1], the “Therapeutic Index” value was 6.62 and the LD50 (in general, the dose expected to kill half of the subjects tested) was 2.65 mmol/kg (i.p). Further, in the data set with mice [2], the Duration of sleep is 94.8 ± 5.3 min, the Onset of sleep amounted to 6.4 ± 0.2 min and the “Minimal Effective Dose” value is 0.4 mmol/kg (i.p).

As for `CCCC(C)C1(CC)C(=O)NC(=S)NC1=O` (stereo not drawn) [Thiopental Na, thiopental sodium, reference compound], the “Recovery from the anesthetic effect” value in data set [3] (governed by redistribution to well-perfused tissues) is “about 5 minutes”. Besides, in data set [3] (setting [5]), the Time to unconsciousness was 10 to 20 s and the “Time until consciousness returns” value was 20 to 30 min. In addition, in the data set with mice [1], the “Therapeutic Index” value was 6.10 and the LD50 is 1.22 mmol/kg (i.p). For the same compound, in the data set with mice [2], the Duration of sleep was determined as 45 ± 3.6 min, the Onset of sleep was 2.0 ± 0.1 min and the “Minimal Effective Dose” value was 0.2 mmol/kg (i.p). Further, in the data set with mice [4], the Duration of sleep came to 45 ± 3.6 min and the Onset of sleep came to 2 ± 0.3 min.
